Laboratory results as given in the supplement of paper PMC8728848.
This is one part of the list.

What was measured:
Experiment in all cases: glycan array binding signal (z-score within array); higher = stronger binding
Conditions in all cases: glycan notation: IUPAC condensed, linker removed
[1] = target: Neu5Ac(a2-3)Gal(b1-4)GlcNAc(b1-2)Man
Method in brief: (§1)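 The binding signal is a Z-score computed within each array and averaged over linkers. Arrays of the same protein sequence at different concentrations or buffers were also averaged together. Data originate from 3228 arrays in the Consortium for Functional Glycomics database, kept only where the protein sequence was available.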

[2] = target: Neu5Ac(a2-3)Gal(b1-4)GlcNAc(b1-2)Man(a1-3)[GlcNAc(b1-2)Man(b1-4)GlcNAc(b1-2)Man(a1-6)]Man(b1-4)GlcNAc(b1-4)GlcNAc
Method in brief: as §1

[3] = target: Neu5Ac(a2-3)Gal(b1-4)GlcNAc(b1-2)Man(a1-3)[GlcNAc(b1-4)][Neu5Ac(a2-3)Gal(b1-4)GlcNAc(b1-2)Man(a1-6)]Man(b1-4)GlcNAc(b1-4)GlcNAc
Method in brief: as §1

[4] = target: Neu5Ac(a2-3)Gal(b1-4)GlcNAc(b1-2)Man(a1-3)[Neu5Ac(a2-3)Gal(b1-4)GlcNAc(b1-2)Man(a1-6)]Man(b1-4)GlcNAc(b1-4)GlcNAc
Method in brief: as §1

[5] = target: Neu5Ac(a2-3)Gal(b1-4)GlcNAc(b1-2)Man(a1-3)[Neu5Ac(a2-3)Gal(b1-4)GlcNAc(b1-2)Man(a1-6)]Man(b1-4)GlcNAc(b1-4)[Fuc(a1-6)]GlcNAc
Method in brief: as §1

[6] = target: Neu5Ac(a2-3)Gal(b1-4)GlcNAc(b1-2)Man(a1-3)[Neu5Ac(a2-6)Gal(b1-4)GlcNAc(b1-2)Man(a1-6)]Man(b1-4)GlcNAc(b1-4)GlcNAc
Method in brief: as §1

[7] = target: Neu5Ac(a2-3)Gal(b1-4)GlcNAc(b1-2)[Neu5Ac(a2-3)Gal(b1-4)GlcNAc(b1-4)]Man(a1-3)[GlcNAc(b1-4)][Neu5Ac(a2-3)Gal(b1-4)GlcNAc(b1-2)[Neu5Ac(a2-3)Gal(b1-4)GlcNAc(b1-6)]Man(a1-6)]Man(b1-4)GlcNAc(b1-4)GlcNAc
Method in brief: as §1

[8] = target: Neu5Ac(a2-3)Gal(b1-4)GlcNAc(b1-2)[Neu5Ac(a2-3)Gal(b1-4)GlcNAc(b1-4)]Man(a1-3)[GlcNAc(b1-4)][Neu5Ac(a2-3)Gal(b1-4)GlcNAc(b1-4)Man(a1-6)]Man(b1-4)GlcNAc(b1-4)GlcNAc
Method in brief: as §1

[9] = target: Neu5Ac(a2-3)Gal(b1-4)GlcNAc(b1-2)[Neu5Ac(a2-3)Gal(b1-4)GlcNAc(b1-6)]Man(a1-6)[Neu5Ac(a2-3)Gal(b1-4)GlcNAc(b1-2)Man(a1-3)]Man(b1-4)GlcNAc(b1-4)GlcNAc
Method in brief: as §1

[10] = target: Neu5Ac(a2-3)Gal(b1-4)GlcNAc(b1-2)[Neu5Ac(a2-3)Gal(b1-4)GlcNAc(b1-6)]Man(a1-6)[Neu5Ac(a2-3)Gal(b1-4)GlcNAc(b1-2)Man(a1-3)][GlcNAc(b1-4)]Man(b1-4)GlcNAc(b1-4)GlcNAc
Method in brief: as §1

[11] = target: Neu5Ac(a2-3)Gal(b1-4)GlcNAc(b1-3)Gal
Method in brief: as §1

[12] = target: Neu5Ac(a2-3)Gal(b1-4)GlcNAc(b1-3)Gal(b1-3)GlcNAc
Method in brief: as §1

[13] = target: Neu5Ac(a2-3)Gal(b1-4)GlcNAc(b1-3)Gal(b1-4)GlcNAc
Method in brief: as §1

[14] = target: Neu5Ac(a2-3)Gal(b1-4)GlcNAc(b1-3)Gal(b1-4)GlcNAc(b1-2)Man(a1-3)[Neu5Ac(a2-3)Gal(b1-4)GlcNAc(b1-3)Gal(b1-4)GlcNAc(b1-2)Man(a1-6)]Man(b1-4)GlcNAc(b1-4)GlcNAc
Method in brief: as §1

[15] = target: Neu5Ac(a2-3)Gal(b1-4)GlcNAc(b1-3)Gal(b1-4)GlcNAc(b1-3)Gal(b1-4)GlcNAc
Method in brief: as §1

[16] = target: Neu5Ac(a2-3)Gal(b1-4)GlcNAc(b1-3)Gal(b1-4)GlcNAc(b1-3)Gal(b1-4)GlcNAc(b1-2)Man(a1-3)[Neu5Ac(a2-3)Gal(b1-4)GlcNAc(b1-3)Gal(b1-4)GlcNAc(b1-3)Gal(b1-4)GlcNAc(b1-2)Man(a1-6)]GalNAc
Method in brief: as §1

[17] = target: Neu5Ac(a2-3)Gal(b1-4)GlcNAc(b1-3)Gal(b1-4)GlcNAc(b1-3)GalNAc
Method in brief: as §1

[18] = target: Neu5Ac(a2-3)Gal(b1-4)GlcNAc(b1-3)Gal(b1-4)GlcNAc(b1-3)[Neu5Ac(a2-3)Gal(b1-4)GlcNAc(b1-3)Gal(b1-4)GlcNAc(b1-6)]GalNAc
Method in brief: as §1

[19] = target: Neu5Ac(a2-3)Gal(b1-4)GlcNAc(b1-3)Gal(b1-4)GlcNAc(b1-6)[Gal(b1-3)]GalNAc
Method in brief: as §1

[20] = target: Neu5Ac(a2-3)Gal(b1-4)GlcNAc(b1-3)Gal(b1-4)[Fuc(a1-3)]GlcNAc
Method in brief: as §1

[21] = target: Neu5Ac(a2-3)Gal(b1-4)GlcNAc(b1-3)GalNAc
Method in brief: as §1

[22] = target: Neu5Ac(a2-3)Gal(b1-4)GlcNAc(b1-3)[Neu5Ac(a2-3)Gal(b1-4)GlcNAc(b1-6)]GalNAc
Method in brief: as §1

[23] = target: Neu5Ac(a2-3)Gal(b1-4)GlcNAc(b1-6)GalNAc
Method in brief: as §1

[24] = target: Neu5Ac(a2-3)Gal(b1-4)GlcNAc(b1-6)[Gal(b1-3)]GalNAc
Method in brief: as §1

[25] = target: Neu5Ac(a2-3)Gal(b1-4)GlcNAc(b1-6)[Neu5Ac(a2-3)Gal(b1-3)]GalNAc
Method in brief: as §1

[26] = target: Neu5Ac(a2-3)Gal(b1-4)GlcNAc6S
Method in brief: as §1

[27] = target: Neu5Ac(a2-3)Gal(b1-4)[Fuc(a1-3)]GlcNAc
Method in brief: as §1

[28] = target: Neu5Ac(a2-3)Gal(b1-4)[Fuc(a1-3)]GlcNAc(b1-2)Man
Method in brief: as §1

B1: HPAIIITrx (Helix pomatia), Q1KM18 (protein)
chain: MLFVTIISLGLLAIVHGQCALKTIAFSAAIDREQTFDANQVVIYDIVITNHGNAYDNSTGLFTAPVDGMYSFQLNLLTIKEKEGWLELVHNGQLKVSVYAKQDSTYDSSSNSVIIKMKEGDRVNVRAHKKSGLFGRDDELYNTFSGHFLSGL
glycan array binding signal (z-score) [1]: 1.64 | glycan array binding signal (z-score) [2]: -0.455 | glycan array binding signal (z-score) [3]: -0.498 | glycan array binding signal (z-score) [4]: -0.44 | glycan array binding signal (z-score) [5]: -0.442 | glycan array binding signal (z-score) [6]: -0.506 | glycan array binding signal (z-score) [7]: -0.418 | glycan array binding signal (z-score) [8]: -0.441 | glycan array binding signal (z-score) [9]: -0.285 | glycan array binding signal (z-score) [10]: -0.5 | glycan array binding signal (z-score) [11]: -0.48 | glycan array binding signal (z-score) [12]: 0.276 | glycan array binding signal (z-score) [13]: -0.508 | glycan array binding signal (z-score) [14]: 0.77 | glycan array binding signal (z-score) [15]: -0.467 | glycan array binding signal (z-score) [16]: 1.93 | glycan array binding signal (z-score) [17]: -0.327 | glycan array binding signal (z-score) [18]: -0.156 | glycan array binding signal (z-score) [19]: -0.161 | glycan array binding signal (z-score) [20]: -0.291 | glycan array binding signal (z-score) [21]: -0.361 | glycan array binding signal (z-score) [22]: -0.41 | glycan array binding signal (z-score) [23]: -0.314 | glycan array binding signal (z-score) [24]: -0.463 | glycan array binding signal (z-score) [25]: -0.501 | glycan array binding signal (z-score) [26]: -0.337 | glycan array binding signal (z-score) [27]: -0.468 | glycan array binding signal (z-score) [28]: -0.22
